From the supplement of paper PMC9151546
Single values are uncertain, as repeats are few or missing.

What was measured:
CHO-K1 [1] = test: relative survival (nuclei to bead ratio vs DMSO control) (% of vehicle control); higher = more surviving cells
Method: (§1)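 Flow-cytometric in vitro micronucleus assay (Litron MicroFlow) in CHO-K1 cells in 96-well plates, 19 concentrations (4.5-200 µM, n=1 per concentration). Without S9, cells were exposed for 24 h and sampled at 48 h. With Aroclor 1254-induced rat liver S9, cells were exposed for 3-4 h and sampled at 27-28 h. Read-outs are %MN and %hypodiploid nuclei relative to nucleated events, and relative survival as the nuclei-to-bead ratio versus the 1% DMSO vehicle control (x100).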

CHO-K1 [2] = test: hypodiploid nuclei frequency (% of nucleated events); higher = more hypodiploid events (aneugenic)
Method: as §1
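For hypodiploid nuclei frequency (% of nucleated events) in this document: hypodiploid nuclei gated on a flow cytometer with 488 nm excitation after SYTOX Green staining, cultures at 37 °C, positive controls vinblastine without S9 and cyclophosphamide with S9.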
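For relative survival (nuclei to bead ratio vs DMSO control) in this document: Lysed-cell nuclei stained with SYTOX Green and counted against counting beads by flow cytometry at 488 nm excitation, with vinblastine (no S9) and cyclophosphamide (plus S9) as positive controls.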

NC(=O)N/N=C/c1ccc([N+](=O)[O-])o1 [Nitrofurazone]
Settings | hypodiploid nuclei frequency, S9 metabolic activation: with S9, exposure time: 3-4 hours [%] | hypodiploid nuclei frequency, S9 metabolic activation: without S9, exposure time: 24 hours [%] | relative survival, S9 metabolic activation: with S9, exposure time: 3-4 hours | relative survival, S9 metabolic activation: without S9, exposure time: 24 hours
CHO-K1 [1], concentration: 4.5 (µM) | – | – | 173 | 128
CHO-K1 [1], concentration: 5.63 (µM) | – | – | 165 | 134
CHO-K1 [1], concentration: 7.04 (µM) | – | – | 166 | 128
CHO-K1 [1], concentration: 8.8 (µM) | – | – | 187 | 103
CHO-K1 [1], concentration: 11 (µM) | – | – | 158 | 121
CHO-K1 [1], concentration: 13.7 (µM) | – | – | 173 | 119
CHO-K1 [1], concentration: 17.2 (µM) | – | – | 159 | 92.9
CHO-K1 [1], concentration: 21.5 (µM) | – | – | 160 | 117
CHO-K1 [1], concentration: 26.8 (µM) | – | – | 151 | 92.9
CHO-K1 [1], concentration: 33.6 (µM) | – | – | 125 | 68.7
CHO-K1 [1], concentration: 41.9 (µM) | – | – | 137 | 72.2
CHO-K1 [1], concentration: 52.4 (µM) | – | – | 111 | 71.8
CHO-K1 [1], concentration: 65.5 (µM) | – | – | 184 | 58.3
CHO-K1 [1], concentration: 81.9 (µM) | – | – | 161 | 80.3
CHO-K1 [1], concentration: 102 (µM) | – | – | 163 | 64.7
CHO-K1 [1], concentration: 128 (µM) | – | – | 166 | 57.8
CHO-K1 [1], concentration: 160 (µM) | – | – | 141 | 56
CHO-K1 [1], concentration: 200 (µM) | – | – | 151 | 56.4
CHO-K1 [2], concentration: 4.5 (µM) | 0.16 | 0.56 | – | –
CHO-K1 [2], concentration: 5.63 (µM) | 0.3 | 0.66 | – | –
CHO-K1 [2], concentration: 7.04 (µM) | 0.32 | 0.72 | – | –
CHO-K1 [2], concentration: 8.8 (µM) | 0.24 | 0.76 | – | –
CHO-K1 [2], concentration: 11 (µM) | 0.34 | 0.48 | – | –
CHO-K1 [2], concentration: 13.7 (µM) | 0.2 | 0.78 | – | –
CHO-K1 [2], concentration: 17.2 (µM) | 0.36 | 0.68 | – | –
CHO-K1 [2], concentration: 21.5 (µM) | 0.3 | 0.62 | – | –
CHO-K1 [2], concentration: 26.8 (µM) | 0.34 | 0.68 | – | –
